# Test results reported in the supplement of paper PMC11417369.
# ± gives the standard deviation of the averaged measurements. The list shows a part of the results.
# Tested on: PfAP2-I AP2 domain 3 (GST-tagged)
# Assay: gcPBM binding intensity (ln(normalized median fluorescence intensity)); higher = stronger DNA binding
# Summary of the method: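 The highest Masliner-normalised natural-log median intensity across replicate spots of either probe orientation is reported as binding intensity. GST-tagged P. falciparum DNA-binding domains expressed in E. coli were applied for 1 h to an Agilent 4 × 180k array of primer-extended double-stranded 36-bp intergenic genomic probes plus negative controls, and bound protein was detected with Alexa488 anti-GST antibody and scanned at 488 nm.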
row,Sequence,gcPBM binding intensity (ln)
1,AATAAAAAACATGAAAGTACTTTAAAAAAGGTAATA [XGTACX_site1897],8.09 ± 0.66
2,AAGTACATACATAAAACACACACATATATATATATA [CACACA_site8541],9.38 ± 0.74
3,AATATATAAATCAATAGTACATATATATATATATAT [XGTACX_site3898],9.21 ± 0.73
4,ATGTATAAACAAAAGGGTACATATATATATATATAT [XGTACX_site2087],9.24 ± 0.17
5,AGAAAAATTACAAAATGTACATAATGTGTTATTAAT [XGTACX_site7877],7.67 ± 0.61
6,TTATATAAAGAATGTACACACAGAAATGCACCCACA [CACACA_site2282],11 ± 0.57
7,ATTAAATATGAGGGAACACACACATGATATATAAAT [CACACA_site8755],7.98 ± 0.67
8,TTATATTTATAAAGGTGTACCTTAAAATGATTTTAC [XGTACX_site3774],7.76 ± 0.29
9,ATATATTATATTAATTGTACATAAAAAAGAGAAAAA [XGTACX_site3366],7.94 ± 0.52
10,AAAATTAAATAAAAATGTACAGAAATATTATATGAA [XGTACX_site5695],7.68 ± 0.46
11,ATTTTATTTTTGTGCACACTGATAAATTGAAAAGAG [CACACA_site2948],10.8 ± 0.18
12,TATTACACATATTATGTGCACATATATAATCAATAT,9.87 ± 0.46
13,TATATATATATAATATGTACATATATTAAGCATTTT [XGTACX_site4470],8.985 ± 0.064
14,AAAAAAAAAAATTAAAGTACTAATTAAAATTATATG [XGTACX_site5289],7.33 ± 0.35
15,TTTTAATTAAATAAATGTACTCATTCTATTATTTAT [XGTACX_site3032],7.62 ± 0.26
16,ATAAATTTTTTATGAACACACAAATACCCACGCTCA [CACACA_site2659],8.21 ± 0.4
17,AAATTCAATTTGCGCTGTACATGAAGATATAAATTT [XGTACX_site4844],7.96 ± 0.5
18,ATACCTGTTGTGTTACGTACATAATTTTAATGTTTG [XGTACX_site8181],8.28 ± 0.45
19,TATATATATAAATACACACACACACCCCAAAGCGTA [CACACA_site4211],8.63 ± 0.57
20,TATTTTTTAAAAAATTATAAATAAAATTATATTACG [CACACA_negctrl_site324],7.46 ± 0.3
21,AAAAAAAACACGCGCACACACACACCCACAGACACA [CACACA_site5253],8.38 ± 0.092
22,ACAGTATATTAAAAAATACACACGTATTATATCTAC [CACACA_site2640],7.59 ± 0.5
23,TATAATATATTCACTCGTACATATTTAATAATATCT [XGTACX_site6209],7.78 ± 0.47
24,GTTTACTAATATTGCACACGAATATGAAAAAGAGAA [CACACA_site2897],9.98 ± 0.48
25,TTTCTAATTTATATCACACACATATATTTATAGTAA [CACACA_site6280],7.67 ± 0.49
